Assay results from PubChem BioAssay AID624172 (National Center for Advancing Translational Sciences (NCATS), 2012).
Hit rate of the full screen: of about 380,000 compounds, about 25 (0.007%) were called active. The inconclusive results got no clear call from the source; some entries with a clear call stand among them for comparison. The call rests on the fitted dose curve; in most records, active means well fitted activation curve with a large enough effect; inconclusive means small, poorly fitted or top-dose-only effect; inactive means no such curve, though single readings can be large or run the other way. No potency is given beside an inconclusive call; the fits are too rough.

These molecules were tested against Glucagon-like peptide 1 receptor (Homo sapiens) (UniProt P43220) (assay: qHTS of GLP-1 Receptor Agonists). Conditions: HEK293 GLP-1R CRE-luciferase, luminescence, 4-6 h, cells express a hypersensitive GLP-1R form; activation: at 45.6 µM (top of the series) unless noted.
UniProt P43220, sequence (P43220 whole entry, looked up): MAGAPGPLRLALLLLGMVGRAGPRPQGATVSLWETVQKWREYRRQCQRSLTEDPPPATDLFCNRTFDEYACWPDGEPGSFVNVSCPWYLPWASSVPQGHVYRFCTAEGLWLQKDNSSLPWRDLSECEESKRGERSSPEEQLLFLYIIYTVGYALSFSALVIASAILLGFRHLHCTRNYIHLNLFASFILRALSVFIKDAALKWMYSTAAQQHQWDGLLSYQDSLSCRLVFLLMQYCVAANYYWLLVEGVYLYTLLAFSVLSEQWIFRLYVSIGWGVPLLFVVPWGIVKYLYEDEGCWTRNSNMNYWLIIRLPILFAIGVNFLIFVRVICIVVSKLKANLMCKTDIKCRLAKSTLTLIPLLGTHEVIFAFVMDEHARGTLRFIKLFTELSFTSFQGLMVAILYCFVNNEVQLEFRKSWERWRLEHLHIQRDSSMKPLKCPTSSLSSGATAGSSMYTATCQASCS
Potency means the concentration at half of the fitted maximal effect; tags describe the fitted curve by direction and shape.
Wherever activation is given: % of control where 0% means no effect.

SMILES	Potency	activation
Cc1ccc(CCNC(=O)C2CCC(=O)N(Cc3cccc(F)c3)C2)cc1 (stereo not drawn)	inconclusive [activator, single point]	–
CC1=C(C)C(=O)C(C(CCCCCC(=O)O)c2ccccc2)=C(C)C1=O (stereo not drawn)	inactive	–
CSc1cc(/C=N/O)c(SC)s1	inconclusive [activator, partial curve, poor fit]	–
CCc1nc2c(cnn2-c2ccc(C)cc2)c(=O)n1Cc1ccccc1	inactive	–
Nc1cc(Oc2ccc(F)cc2F)cc([N+](=O)[O-])c1	inconclusive [activator, single point]	–
COc1ccc(CCN2CC(C#N)=C3c4cc(OC)c(OC)cc4CCN3C2)cc1OC	inconclusive [activator, partial curve, poor fit]	–
O=Nc1c(O)c2ccccc2c2ccccc12	inactive	–
CC(=O)c1cccc(NC(=S)NC(=O)c2ccccc2)c1	inactive	–
C=C1/C(=C\C=C2/CCC[C@@]3(C)[C@@H]([C@H](C)OCCC(C)(C)O)CC[C@@H]23)C[C@@H](O)C[C@@H]1O	inactive	–
COc1ccc(NC(=O)C23CC4CC(C2)CC(c2ccccc2)(C4)C3)c(OC)c1	inactive	–
Clc1nssc1=Nc1ccccc1	inconclusive [activator, single point]	–
COc1ccc(-c2nc(C#N)c(NCc3cccnc3)o2)cc1OC	inconclusive [activator, partial curve, poor fit]	–
Clc1ccc2nc(C(Cl)(Cl)Cl)[nH]c2c1	inconclusive [activator, partial curve, poor fit]	–
CNC(=S)N/N=C(\C)c1cccc(C(F)(F)F)c1	inactive	–
COc1cc(C(=O)Nc2ccc3ccccc3c2)cc(OC)c1OC	inconclusive [activator, single point]	–
Cc1nn(-c2ccccc2)c(Cl)c1/C=N/NC(N)=O	inconclusive [activator, partial curve]	–
COc1ccc(-c2sc3ccccc3c2-c2ccc(OCCN(C)C)cc2)cc1	inactive	–
COCCCNc1nc(N)c([N+](=O)[O-])c(NCc2ccccc2)n1	inconclusive [activator, partial curve, poor fit]	–
COC(=O)c1cccc(COC(=O)c2cccnc2SC)c1	inconclusive [activator, partial curve, poor fit]	–
O=c1[nH]c2ccccc2nc1NCc1ccccc1	inconclusive [activator, partial curve, poor fit]	–
Clc1ccc(-c2csc(N/N=C/c3cccnc3)n2)c(Cl)c1	inactive	–
O=C(Cn1nc(-c2ccc(N3CCOCC3)c([N+](=O)[O-])c2)c2ccccc2c1=O)N1CCCCC1	inconclusive [activator, partial curve, poor fit]	–
Cc1cccc2cc(CN(CCCO)C(=O)Nc3cccc(Cl)c3)c(=O)[nH]c12	inactive	–
COc1ccc(Cn2nc(C(=O)O)c3ccccc3c2=O)cc1F	inconclusive [activator, partial curve, poor fit]	–
CN(Cc1cc(-c2ccccc2)on1)C(=O)c1cc(COc2c(F)cccc2F)on1	inactive	–

SMILES	Potency	activation
OC(c1ccccc1)c1nc(-c2csc3ccccc23)cs1 (stereo not drawn)	inconclusive [activator, single point]	–
N#Cc1ccccc1COC(=O)c1ccc2c(c1)OCCO2	inconclusive [activator, partial curve, poor fit]	–
COc1ccc(NC(=O)CN(C)Cc2cccs2)cc1Cl	inconclusive [activator, single point]	–
O=S1(=O)CCS(=O)(=O)C1c1ccccc1	inactive	–
O=C(CCc1nnc(Cc2ccc(-c3ccccc3)cc2)o1)NCC1CC1	inconclusive [activator, single point]	–
CSc1cc(-c2ccco2)oc1C(=O)c1ccco1	inconclusive [activator, partial curve, poor fit]	–
CC(C)[C@@H](C(=O)NC1CCCC1)N1C(=O)N2CCc3c([nH]c4ccccc34)[C@@]2(C)C1=O	inconclusive [activator, single point]	–
CC(C)CNC(=S)NC(=O)c1ccc([N+](=O)[O-])cc1	inactive	–
CSc1ccc(CN2CCCC(CNC(=O)c3ccc(F)cc3)C2)cc1 (stereo not drawn)	–	inconclusive: 46% [activator]
COc1cc2c(cc1OC)/C(=C/C#N)NC(C)(C)C2	inconclusive [activator, partial curve, poor fit]	–
Cc1cccc(-c2nc3cc([N+](=O)[O-])ccc3o2)c1	inactive	–
Cc1nc(N2CCOCC2)nc(OC(C)C)c1[N+](=O)[O-]	inconclusive [activator, single point]	–
Cc1ccc(C(=O)NC(=S)N(C)C2CCCCC2)cc1	inactive	–
Cc1cc(NC(=O)C2CCN(S(=O)(=O)c3cccs3)CC2)no1	inactive	–
Cc1cc(=O)oc2cc(OCC(=O)N3CCN(c4ccccc4)CC3)c(Cl)cc12	inactive	–
Cc1cc(NC(=O)C2CCC2)n(-c2ccccn2)n1	inconclusive [activator, partial curve, poor fit]	–
O=C(c1ccccc1)n1c2ccccc2c(=O)n1-c1ccccc1CCl	inconclusive [activator, single point]	–
CC(C)Cc1[nH]c(=O)c(C#N)c2c1COC(C)(C)C2	inconclusive [activator, partial curve, poor fit]	–
O=C(Nc1ccc(OCC(F)(F)C(F)F)c(C(F)(F)F)c1)c1ccccc1O	inactive	–
Cc1cccc(OCCSc2cc(C)nc(N)n2)c1	inconclusive [activator, full curve, poor fit]	–
Cc1ccc(NC(=O)CCCc2nc3ccccc3s2)c(O)c1	inactive	–
Cc1cc(SCC#N)n2nc(C)c(-c3ccccc3)c2n1	inconclusive [activator, partial curve, poor fit]	–
CCc1ccc(-c2n[nH]nc2C2=CC(=O)C[C@H](c3ccc(F)cc3)C2)cc1	inactive	–
Cc1sc2ncnc(N3CCN(C(=O)c4ccco4)CC3)c2c1C	inactive	–
COc1ccc(-c2cc(-c3ccc(O)cc3)nc(N)c2C#N)cc1OC	inconclusive [activator, full curve]	–

SMILES	Potency	activation
CCCn1cnc2cc(NCc3ccc(Br)cc3)ccc21	inconclusive [activator, partial curve, poor fit]	–
C=C(C)CSc1cc(C)nc2c(-c3ccccc3)c(C)nn12	inconclusive [activator, single point]	–
O=C(CCSc1ccccc1Cl)NNC(=O)c1ccncc1	inactive	–
COc1ccc(-c2cc3cc(OC)c(OC)cc3cn2)cc1	inconclusive [activator, partial curve, poor fit]	–
COc1ccc(CCNc2oc(Cc3cccc4ccccc34)nc2C#N)cc1OC	inconclusive [activator, partial curve]	–
Cc1nc2cc(C(=O)OCC(=O)N(CC(C)C)C3CCS(=O)(=O)C3)ccc2n1-c1ccccc1 (stereo not drawn)	inactive	–
NC(COCc1ccccc1)c1csc(NC(=O)Nc2cccc(C(F)(F)F)c2)n1 (stereo not drawn)	inactive	–
CSc1ncccc1C(=O)OCc1ccc(Br)cc1	inconclusive [activator, partial curve, poor fit]	–
CS(=O)(=O)c1nc(S(=O)(=O)c2ccc(Cl)cc2)c(NCCN2CCOCC2)s1	inactive	–
CCOC(=O)c1cc(-c2ccccc2)nc2nc(N(CC)CC)sc12	inconclusive [activator, partial curve, poor fit]	–
CCOC(=O)Cn1c(-c2ccccc2)nc2ccccc2c1=O	inconclusive [activator, partial curve, poor fit]	–
Cc1cccc(NC(=S)NC(=O)Cc2ccccc2)c1C	inactive	–
CCN(CCO)c1ncnc2c1sc1nc(CC(C)C)c3c(c12)CC(C)(C)OC3	inconclusive [activator, partial curve]	–
O=C(Nc1ccccc1C(=O)O)c1ccc(Br)o1	inactive	–
O=c1c2ccccc2nc(SCc2nc3ccccc3s2)n1CCCO	inconclusive [activator, single point]	–
Cc1ccccc1NC(=O)c1sc2nc(N3CCOCC3)c3c(c2c1N)CCCC3	inconclusive [activator, partial curve, poor fit]	–
COc1ccc(N2CCCC2)c(NC(=O)COc2ccccc2)c1	inconclusive [activator, single point]	–
COc1nc(NCCC2=CCCCC2)nc(OC)n1	inconclusive [activator, single point]	–
S=C(NCCc1ccccc1)N/N=C/c1ccccc1Cl	inconclusive [activator, single point]	–
CN1CCN(C(c2ccc(Br)cc2)c2cc(Cl)c3cccnc3c2O)CC1 (stereo not drawn)	inconclusive [activator, partial curve, poor fit]	–
CCOC(=O)N1C(=O)c2cc(OC)ccc2S1(=O)=O	inactive	–
CCOCCn1c(N(C)Cc2ccccc2)nc2c1c(=O)[nH]c(=O)n2C	inconclusive [activator, single point]	–
Cn1nccc1-c1ccc(C(=O)NCc2ccc(Cl)cc2)c2occc12	inconclusive [activator, partial curve, poor fit]	–
